The results in this text go back to PubChem BioAssay AID1508642 (National Center for Advancing Translational Sciences (NCATS), 2021).

Hit rate of the full screen: of about 43,000 compounds, about 200 (0.47%) were called active. Not shown: some 12% with an inconclusive outcome. Calls come from the whole dose curve; as a rule, active = well fitted cell-killing curve with a large enough effect; inconclusive = small, poorly fitted or top-dose-only effect, or effect the other way; inactive = flat fitted curve, though single readings scatter. Some of the results follow.
% is set by controls: 0 for no effect and ±100 for the full control effect.

This assay is described as follows: Cell viability qHTS assay in S16 Pmp22-F2sN cells. Note: nearly all actives have a fitted effect of over 65% in size. To be noted: S16 Pmp22-F2sN Schwann cells (luciferase reporters placed in the Pmp22 gene) viability, CellTiter-Glo, 24 h; series mostly up to 57.5 µM; activity change, negative = cytotoxicity: at the top concentration. The essentials: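 Rat S16 Schwann reporter line, 24 h treatment with library compounds delivered at 23 nL per well. Cell viability by CellTiter-Glo luminescence.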
(qHTS replaces the single test concentration by a dilution series.)
`Cc1ccc2nc(Cl)c3cc(C(=O)N(C)C4CCCCC4)sc3c2c1`: the “activity change, negative = cytotoxicity” value is inactive: 0.607%. Take `Cc1cc2nn(-c3ccc(F)cc3)nc2cc1NC(=O)c1ccc(OC(C)C)cc1`: the “activity change, negative = cytotoxicity” value is inactive: 5.88%. In the case of `Cc1ccc(NC(=O)CSc2nc3ccc(NC(=O)c4cccs4)cc3s2)c(C)c1` it was inactive: -33.7%; in that of `COc1cccc(Cn2c(=O)n(-c3cccc(Cl)c3C)c(=O)c3c4c(sc32)CN(C(C)=O)CC4)c1`, inactive: -22.9%. Turning to `CCOC(=O)c1c(C)oc2nc(C)nc(NCC3CCN(Cc4cccc(C)c4)CC3)c12`, the “activity change, negative = cytotoxicity” value was inactive: 7.7%. Regarding `CCn1c(CNC(=O)c2ccc(OC)cc2)nnc1SCC(=O)Nc1cccc(C)c1C`, the “activity change, negative = cytotoxicity” value is inactive: 10.4%.

On to `COc1ccccc1NC(=O)CSc1ccc(-c2sc(C)nc2C)nn1`, for which the “activity change, negative = cytotoxicity” value is inactive: -4.31%. Regarding `COc1cccc(CNCCSc2nnnn2C)c1OCc1ccc(Cl)cc1Cl`, the “activity change, negative = cytotoxicity” value was inactive: -28.9%. Turning to `CCC(Nc1ccc(-c2nc(-c3ccco3)no2)cc1[N+](=O)[O-])c1ccccc1` (configuration not stated), the “activity change, negative = cytotoxicity” value was inactive: 4.93%. Turning to `Cc1cccc(-c2nc(CCNC(=O)Cc3ccc(F)cc3)cs2)c1`, the “activity change, negative = cytotoxicity” value is inactive: -5.12%. Take `CCc1cnc2c(c1SCC(=O)Nc1ccc(Cl)cc1)c(=O)n(C)c(=O)n2C`: the “activity change, negative = cytotoxicity” value was inactive: -3.44%. With `COc1ccc(-c2cc(C(F)F)n3ncc(C(=O)Nc4cc(OC)ccc4OC)c3n2)cc1`, the “activity change, negative = cytotoxicity” value is inactive: -16.3%. On to `CCOc1ccc(NC(=O)Cc2coc3ccc(C)cc23)cc1`, for which the “activity change, negative = cytotoxicity” value was inactive: 14.8%. For `O=C(NCC(c1ccc2c(c1)OCO2)N1CCOCC1)c1ccccc1F` (configuration not stated), the “activity change, negative = cytotoxicity” value was inactive: -1.74%. In the case of `O=C(NCc1ccccc1)c1nnc(Cc2cccc(F)c2)o1` it was inactive: 2.09%; in that of `CCc1ccc2occ(CC(=O)Nc3c(C(=O)Nc4ccc(OC)cc4)oc4ccccc34)c2c1`, inactive: -2.42%. In the case of `Cc1cccn2cc(-c3cccc(NS(=O)(=O)c4ccc(Cl)c(Cl)c4)c3)nc12`, the “activity change, negative = cytotoxicity” value was inactive: -6.34%. As for `COc1ccc(C2c3cccn3CCN2S(=O)(=O)c2ccccc2[N+](=O)[O-])cc1OC` (configuration not stated), the “activity change, negative = cytotoxicity” value is inactive: -15.2%. As for `CC(=O)c1cccc(NC(=O)Cn2c(SCC(=O)Nc3ccc(F)cc3)nc3ccccc32)c1`, the “activity change, negative = cytotoxicity” value is inactive: 3.66%. As for `Cc1c2cnn(CC(=O)NCc3ccccc3)c(=O)c2c(C)n1Cc1cccc(Cl)c1`, the “activity change, negative = cytotoxicity” value is inactive: -12.6%. Turning to `CCOc1ccc(-n2c(C)nc3c(cnn3-c3ccc(C)cc3)c2=O)cc1`, the “activity change, negative = cytotoxicity” value was inactive: -23.8%.

For `CCN(CCCNC(=O)c1cc2c(=O)[nH]c3ccccc3c2s1)c1ccccc1`, the “activity change, negative = cytotoxicity” value was inactive: 0.815%. Consider `CCC1CCCCN1S(=O)(=O)c1ccc(NC(=O)c2cc(=O)c3ccccc3o2)cc1` (configuration not stated), for which the “activity change, negative = cytotoxicity” value was inactive: 0.209%. Consider `O=S(=O)(c1ccc(-n2cnnn2)cc1)N1CCN(c2ccccc2F)CC1`, for which the “activity change, negative = cytotoxicity” value is inactive: -3.71%. `O=C(Nc1nc(-c2ccc(Br)cc2)ns1)c1ccc(F)cc1`: the “activity change, negative = cytotoxicity” value is inactive: -24.2%. In the case of `Cn1cc(S(=O)(=O)c2ccccc2)c(=O)c2cc(F)c(N3CCOCC3)cc21`, the “activity change, negative = cytotoxicity” value is inactive: -3.88%. In the case of `N#C/C(=C\c1ccc(Cl)cc1)C(=O)NCC1CCCO1` (configuration not stated) it was inactive: 10.5%; in that of `COc1ccc(CCN2C(=O)N(c3ccc(F)cc3)C(=O)C2CC(=O)Nc2ccccc2)cc1` (configuration not stated), inactive: -4.37%; in that of `COc1ccc(-c2c(C#N)c(SCC(=O)Nc3ccccc3C)nc(C)c2C(=O)Nc2ccccc2)cc1OC`, inactive: 1.22%.

Regarding `COCCCNC(=O)CSc1nc(-c2cccc(F)c2)[nH]c1-c1ccccc1`, the “activity change, negative = cytotoxicity” value was inactive: 0.101%.

On to `O=C(CN1CCN(Cc2ccccc2Cl)C1=O)NCc1ccccc1Cl`, for which the “activity change, negative = cytotoxicity” value was inactive: 1.72%.

With `CCOc1ccc(C(=O)c2cn(CC(=O)Nc3cc(OC)cc(OC)c3)c3ccc(F)cc3c2=O)cc1`, the “activity change, negative = cytotoxicity” value is inactive: 0.974%. Take `COc1ccc(NC(=O)Cn2c(=O)oc3cc(S(=O)(=O)NC(C)C)ccc32)cc1OC`: the “activity change, negative = cytotoxicity” value is inactive: -0.214%. Consider `O=C(CCn1c(=O)c2cccn2c2ccc(F)cc21)NCc1ccccc1F`, for which the “activity change, negative = cytotoxicity” value is inactive: -0.0817%.

For `Cc1ccc(NC(=O)CSc2nc(-c3ccc(F)cc3)cc(C(F)(F)F)c2C#N)cc1`, the “activity change, negative = cytotoxicity” value is inactive: 5.5%. The figure for `Cc1cccc(NC(=O)Cn2c(=O)n(Cc3ccc(C(=O)NCc4ccc5c(c4)OCO5)cc3)c(=O)c3ccccc32)c1` is inactive: 9.33%. In the case of `CCNC(=O)CC1C(=O)N(c2ccccc2)C(=O)N1Cc1ccc(F)cc1` (configuration not stated), the “activity change, negative = cytotoxicity” value was inactive: 2.11%. As to `COc1ccccc1N1CCN(S(=O)(=O)c2ccc3c(c2)oc(=O)n3C)CC1`, the “activity change, negative = cytotoxicity” value is inactive: 1.62%. With `Cc1nnc(N2CCC(C(=O)NC(C)C)CC2)c2nn(-c3ccc(Cl)cc3)c(C)c12`, the “activity change, negative = cytotoxicity” value was inactive: 1.41%. As to `Cc1ccccc1Cn1c(CCCNC(=O)C2CCCCC2)nc2ccccc21`, the “activity change, negative = cytotoxicity” value was inactive: 2.13%.

Take `COc1ccc(S(=O)(=O)N(Cc2nc(-c3cccc(C)c3)no2)C2CCCCC2)cc1`: the “activity change, negative = cytotoxicity” value is inactive: 1.44%. The figure for `Cc1ccccc1Cn1c(SCc2ccc(C(=O)NCc3cccs3)cc2)nc2ccncc21` is inactive: -14.9%; for `Cc1cccc(OCc2nnc(SCC(=O)Nc3ccc(C)cc3C)o2)c1` it is inactive: 17.9%; for `O=C(Nc1ccccc1)N1CCN(C(=O)c2nsc3ccccc23)CC1` it is inactive: 6.87%. Regarding `CC(=O)c1cccc(NC(=O)CCc2c(C)nc3c(-c4ccc(F)cc4)c(C)nn3c2C)c1`, the “activity change, negative = cytotoxicity” value was inactive: 4.37%.

Consider `Fc1cccc(F)c1-c1nc(-c2ccncc2)no1`, for which the “activity change, negative = cytotoxicity” value is inactive: 5.45%. With `Cc1cc(=O)n2nc(N3CCC(C(=O)Nc4ccc(C(C)C)cc4)CC3)sc2n1`, the “activity change, negative = cytotoxicity” value was inactive: -5.33%.
